{
  "source": "the supplement of paper PMC11417369",
  "note": "± gives the standard deviation of the averaged measurements. This is one part of the list.",
  "data": [
    {"test_system": "PfAP2-G AP2 domain (GST-tagged)", "test": "gcPBM binding intensity (ln(normalized median fluorescence intensity)); higher = stronger DNA binding", "method_in_brief": "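DNA-binding domains from P. falciparum, fused to GST and produced in E. coli, were put on an Agilent 4 × 180k double-stranded probe array for 1 h in 1× PBS holding 1% milk, 0.2 mg/ml BSA, 0.5% salmon testes DNA and 0.03% Triton X-100. Probes were primer-extended, 36 bp long and drawn from intergenic genomic regions, with negative controls included. After Alexa488 anti-GST antibody detection and a 488 nm scan, binding intensity was set as the highest Masliner-normalised natural-log median intensity across replicate spots of either probe orientation.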", "values": [
      {"sequence": "ATAAATATTGCGTGCACACACATAATATTTATATAT [CACACA_site7136]", "gcPBM binding intensity (ln)": "10.5 ± 0.51"},
      {"sequence": "TATAATATATTCATGTGTACATATATTTCGAACATA [XGTACX_site1754]", "gcPBM binding intensity (ln)": "11.6 ± 1.1"},
      {"sequence": "ATGTCATAAAAACATATACACACTTGAAATATAAAA [CACACA_site2329]", "gcPBM binding intensity (ln)": "10 ± 0.24"},
      {"sequence": "CATTCCTATTATTATACACACAAATTAAGAATTCAA [CACACA_site787]", "gcPBM binding intensity (ln)": "10.1 ± 0.38"},
      {"sequence": "ATATTTATTTTATAAAGTACTAAAAAATATATTATA [XGTACX_site8522]", "gcPBM binding intensity (ln)": "11 ± 0.61"},
      {"sequence": "ATTTTTTTGTTAATTTGTACATAAAATTTTATTTTA [XGTACX_site7007]", "gcPBM binding intensity (ln)": "10.9 ± 0.45"},
      {"sequence": "GGATAAGAGGCATATACACACAATTTAAAAAAATAA [CACACA_site4657]", "gcPBM binding intensity (ln)": "10.2 ± 0.42"},
      {"sequence": "AAAAAAAAAAAAAAAACACACAAACGCTTTTTTTTT [CACACA_site4545]", "gcPBM binding intensity (ln)": "10.4 ± 0.13"},
      {"sequence": "AATATATATGAAAAAAGTACTCAAGGAATAAAAAAA [XGTACX_site7720]", "gcPBM binding intensity (ln)": "11.3 ± 0.67"},
      {"sequence": "CATTTAATAATAACAAGTACACAAAGATGTATAACA [XGTACX_site8315]", "gcPBM binding intensity (ln)": "11.5 ± 1"},
      {"sequence": "ATGATAAATATAAGTTGTACATATATCTATGTGCAT [XGTACX_site6010]", "gcPBM binding intensity (ln)": "11.3 ± 0.85"},
      {"sequence": "CATAAATACTATATATGTACGTAATTTTTAAAACAT [XGTACX_site7710]", "gcPBM binding intensity (ln)": "11.6 ± 0.83"},
      {"sequence": "GGGTGCCAAATTAGCACACACATATATACCTGAATT [CACACA_site5551]", "gcPBM binding intensity (ln)": "10.2 ± 0.2"},
      {"sequence": "GTTAAAAAAAGGAGAGATCTCACACAAATATATATA [GTGCAC_negctrl_site117]", "gcPBM binding intensity (ln)": "9.965 ± 0.007"},
      {"sequence": "TTACAAATAATTTGTTGTACGCTTTTTTTCTTTTTT [XGTACX_site7199]", "gcPBM binding intensity (ln)": "11.7 ± 1.1"},
      {"sequence": "TATATATATATATATGTGCGCATTACTTTAAGAATA", "gcPBM binding intensity (ln)": "10.3 ± 0.33"},
      {"sequence": "TATTGTTATCTTTTATGTACTTAAAAAAATAAATTT [XGTACX_site4233]", "gcPBM binding intensity (ln)": "11.4 ± 1"},
      {"sequence": "AAAAAGGTTATTGGTACACACATATGTATATAAATA [CACACA_site6402]", "gcPBM binding intensity (ln)": "11.3 ± 0.86"},
      {"sequence": "TAATAAAACATATATACACACATTATATATACATAT [CACACA_site8495]", "gcPBM binding intensity (ln)": "9.86 ± 0.028"},
      {"sequence": "TTTTTTTTTATTTGTTGTACGAGGTTTTAAAATTTT [XGTACX_site106]", "gcPBM binding intensity (ln)": "11.3 ± 0.73"},
      {"sequence": "ACAATATCTAGATACACACACATATCTCTCAATCTA [CACACA_site656]", "gcPBM binding intensity (ln)": "10.08 ± 0.071"},
      {"sequence": "TATAATATTCTATATGCATGTACACCATTCTTTATT [TGCATGCA_site688]", "gcPBM binding intensity (ln)": "11.4 ± 0.87"},
      {"sequence": "GTAGGCATTAAAAAATGTACAAAATATTATGAATTG [XGTACX_site1615]", "gcPBM binding intensity (ln)": "10.7 ± 0.4"},
      {"sequence": "TAAACACATATATAGACATGCAACTAGTTTTTATAA [TGCATGCA_site474]", "gcPBM binding intensity (ln)": "9.81 ± 0.071"},
      {"sequence": "AAATCTTTGTGTGGATGTACTTTTATAAAAAAGAAT [XGTACX_site3830]", "gcPBM binding intensity (ln)": "11.3 ± 0.86"},
      {"sequence": "TAATAAATAATGGTTACACACAAAATATAAAACTTA [CACACA_site3544]", "gcPBM binding intensity (ln)": "10.2 ± 0.28"},
      {"sequence": "AATTATAAATCTTGCACACAAAAAAAATAATAAAAA [CACACA_site2434]", "gcPBM binding intensity (ln)": "10.2 ± 0.24"},
      {"sequence": "AATTTTTAGTATATAACATAAAATAAAATAAAATAA [GTGCAC_negctrl_site696]", "gcPBM binding intensity (ln)": "9.835 ± 0.021"},
      {"sequence": "TCTGTTCTTTTTTAATGTACAAGAAATATAAAATTC [XGTACX_site3600]", "gcPBM binding intensity (ln)": "11 ± 0.61"},
      {"sequence": "TTTATTTAATTATGTTGTACATGTAGGATTTATTTT [XGTACX_site7078]", "gcPBM binding intensity (ln)": "11.3 ± 0.74"},
      {"sequence": "TTATTTTTTTTTTTTTGTACACAATTTGACACATTA [XGTACX_site7983]", "gcPBM binding intensity (ln)": "11.5 ± 0.91"},
      {"sequence": "AAAAAGGAAATAATAACACACATTAATAATTATAAA [CACACA_site3401]", "gcPBM binding intensity (ln)": "9.72 ± 0.085"},
      {"sequence": "TAAAAAGTTATATTCACACACATACACATATAAATA [CACACA_site6398]", "gcPBM binding intensity (ln)": "10.07 ± 0.064"},
      {"sequence": "TTATCTATAAATACGAGTACGCAAAATCATATAATA [XGTACX_site2447]", "gcPBM binding intensity (ln)": "11.6 ± 1.1"},
      {"sequence": "TTTATGTGTTATAAATGTACATAATATAATTCGTAT [XGTACX_site3845]", "gcPBM binding intensity (ln)": "11.1 ± 0.7"},
      {"sequence": "TTTTTATAAAATTTTATGAGCTCGGAAAAAATAAAC [GTGCAC_negctrl_site637]", "gcPBM binding intensity (ln)": "10.5 ± 0.36"},
      {"sequence": "ATCTGCATATATATATGTACATATTTTAGAATGCAC [XGTACX_site708]", "gcPBM binding intensity (ln)": "11.2 ± 0.81"},
      {"sequence": "TTCTTTTTAAATTACACACACATATAAATATGTATA [CACACA_site7618]", "gcPBM binding intensity (ln)": "10.04 ± 0.071"},
      {"sequence": "TTTTAATATTAAGATGTCTTTTACGTTTATTTTGTA [CACACA_negctrl_site765]", "gcPBM binding intensity (ln)": "9.9 ± 0.099"},
      {"sequence": "ATTTACGCGCTTATTACACACACATACAAATAAGGA [CACACA_site9157]", "gcPBM binding intensity (ln)": "10.4 ± 0.33"},
      {"sequence": "TAATTATTTGCCCTTACTCTGAACATTCGGAATTTA [CACACA_negctrl_site1278]", "gcPBM binding intensity (ln)": "10.2 ± 0.21"},
      {"sequence": "GTATGAAATTATAATAGTACATATAAATAAAAAAAA [XGTACX_site8955]", "gcPBM binding intensity (ln)": "11.1 ± 0.64"},
      {"sequence": "TATATATAATATATATATATGGAAATTCTTTTAAAT [XGTACX_negctrl_site50]", "gcPBM binding intensity (ln)": "9.83 ± 0.38"},
      {"sequence": "TGTATTATATGTAAATGTACATTTAATATTTTATAT [XGTACX_site4461]", "gcPBM binding intensity (ln)": "11 ± 0.51"},
      {"sequence": "TACGGTAAATAGTGTTGTACGATACAATTGTTTTCT [XGTACX_site8118]", "gcPBM binding intensity (ln)": "10.9 ± 0.42"},
      {"sequence": "AAAATAAATAAATAAATATATATATATATATATATA [TGCATGCA_negctrl_site558]", "gcPBM binding intensity (ln)": "9.99 ± 0.78"},
      {"sequence": "AAGGGGAAAAAAAAAAGTACACAAACATAGGATAAT [XGTACX_site377]", "gcPBM binding intensity (ln)": "11.7 ± 1"},
      {"sequence": "CAATTAAAATGCAACGGTACACATAAAAAAAATAAA [XGTACX_site6216]", "gcPBM binding intensity (ln)": "11 ± 0.52"},
      {"sequence": "ATATAAGGATAACCTAGTACATATTATATGAAACAA [XGTACX_site8459]", "gcPBM binding intensity (ln)": "10.7 ± 0.39"},
      {"sequence": "CCACAAGTATATAGTAGTACAATTTTTTTCTCTTTA [XGTACX_site4403]", "gcPBM binding intensity (ln)": "11.4 ± 0.83"},
      {"sequence": "GAAATAGAGAAACACACACACATATATTTATGTATT [CACACA_site3967]", "gcPBM binding intensity (ln)": "9.77 ± 0.028"},
      {"sequence": "ATAAAAATAAAAAGATGTACGTATTTTTTTTTTTTT [XGTACX_site5329]", "gcPBM binding intensity (ln)": "11.6 ± 0.91"},
      {"sequence": "TATAAATAAATGCGTACACACTAATAAAAAAAAAAA [CACACA_site4630]", "gcPBM binding intensity (ln)": "11.6 ± 1.1"},
      {"sequence": "CATTATTATGATAGTTGTACAATTTTTATAAAAAAT [XGTACX_site4411]", "gcPBM binding intensity (ln)": "11.3 ± 0.49"},
      {"sequence": "AATATTATAAATGATACACACTTAAAATACACCCAC [CACACA_site5498]", "gcPBM binding intensity (ln)": "10.8 ± 0.59"},
      {"sequence": "TGAATATTTACTTTAGCACACAATTTGTATTTGATT [CACACA_site960]", "gcPBM binding intensity (ln)": "10.03 ± 0.064"}
    ]}
  ]
}
